Measured values from the RNAGym collection of RNA variant scans (doi:10.1101/gad.245936.114).
This sample is rich in variants without activity.

B1: tRNA (parent)
chain: CUCUCGGUAGCCAAGUUGGUUUAAGGCGCAAGACUUUAAUUUAUCACUACGAAAUCUUGAGAUCGGGCGUUCGACUCGCCCCCGGGAGAUUUUUUCCUCGAGCAA

Variants of: B1
Assay: nonsense suppression (GFP-seq) (ratio to wild type); higher = more function; SUP4oc tRNA, yeast GFP reporter sort-seq
Outline: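 To measure nonsense suppression, tRNA variants from a library carrying ~3% random mutations were integrated into the yeast genome alongside RFP and a GFP ochre reporter under galactose control. Growth took place in raffinose/galactose medium supplemented with 80 mg/L adenine, followed by sorting into GFP/RFP bins and Illumina sequencing of each bin (phred ≥30). For each variant with ≥100 reads and ≥30 cells, the bin median GFP/RFP values were weighted by its estimated cell share per bin and referenced to the unmutated parent tRNA.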
In the case of G28U U57C C68G, the nonsense suppression is reported as at most 0.026. G28U U57G G85A showed a nonsense suppression of at most 0.026. For A30G A74G C75A A87U, the nonsense suppression was at most 0.026. Work on C29A A33G C72A C82G yielded a nonsense suppression of at most 0.026. C29U G85U showed a nonsense suppression of 0.0262. With A30G A31G A74C C80A the nonsense suppression was at most 0.026. C29U G78U showed a nonsense suppression of at most 0.026. In the case of C29U G61C G85C, the nonsense suppression is reported as at most 0.026. For C29G G73C, the nonsense suppression was at most 0.026. G28C C34G G59U showed a nonsense suppression of at most 0.026. Work on G28C U63A yielded a nonsense suppression of 0.225. Work on C29G U35C A62C G85A yielded a nonsense suppression of at most 0.026. C29G A62G G85C gave a nonsense suppression of at most 0.026. Variant C29U C34U G86A has a nonsense suppression of at most 0.026. Work on C29U A31G G59C A89C yielded a nonsense suppression of at most 0.026. In the case of C29A U70C A74G, the nonsense suppression is reported as at most 0.026. Work on C29A C79G C83G A87U yielded a nonsense suppression of at most 0.026. G28U U71G showed a nonsense suppression of at most 0.026. C29U A74C C75U gave a nonsense suppression of at most 0.026. In the case of C29U A60C U76A C77A, the nonsense suppression is reported as at most 0.026. With C29A U58G G86A A87G the nonsense suppression was at most 0.026. With C29A U57A C79A the nonsense suppression was at most 0.026. For A30U C81A, the nonsense suppression was 0.0383. In the case of C29A U35A A62U G78A G86C, the nonsense suppression is reported as at most 0.026. G28A G85C gave a nonsense suppression of at most 0.026. Variant G28C C56A has a nonsense suppression of at most 0.026. A30C U71G A74C showed a nonsense suppression of at most 0.026. Variant C29A G85C has a nonsense suppression of at most 0.026. Variant C29U C56U has a nonsense suppression of at most 0.026. For G28U C34A G86C, the nonsense suppression was at most 0.026. With C29U G59C the nonsense suppression was 0.0272. For G28A U71C, the nonsense suppression was at most 0.026. G28U A33C U63A U71G gave a nonsense suppression of at most 0.026. A30C G66U gave a nonsense suppression of at most 0.026. For C29U U70A G84A A87U, the nonsense suppression was at most 0.026. With A30C A31C G67U the nonsense suppression was at most 0.026. For C29U C64U, the nonsense suppression was 0.035. G28C U35C U70C gave a nonsense suppression of at most 0.026. Variant G28C U58A has a nonsense suppression of at most 0.026. For A30G G61U U63A G84U, the nonsense suppression was at most 0.026. Work on C29A U70C yielded a nonsense suppression of at most 0.026. C29G A33G G67A U71G G86A gave a nonsense suppression of 1.12. For A30C U57A G84C, the nonsense suppression was at most 0.026. A30G A74G showed a nonsense suppression of 0.098. A30G A74U showed a nonsense suppression of 0.028. A30C C64A C83U G88C A89C showed a nonsense suppression of at most 0.026. With G28C C29G U35A U76G the nonsense suppression was at most 0.026. Variant C29A A54U C83A has a nonsense suppression of at most 0.026. With A30C U35G G59C G84A the nonsense suppression was at most 0.026. Work on A30G A33U G65C yielded a nonsense suppression of at most 0.026. Work on C29U U55G C82G A87G yielded a nonsense suppression of at most 0.026. A30C U76C showed a nonsense suppression of at most 0.026. For C29G U76C A89C, the nonsense suppression was at most 0.026. With A30G A54C G61C the nonsense suppression was at most 0.026. G28C A33G showed a nonsense suppression of at most 0.026. Variant A30C C64U G88C has a nonsense suppression of at most 0.026. A30C U55C G67U C79G showed a nonsense suppression of at most 0.026. Work on G28C C79A G85C yielded a nonsense suppression of 0.0328. With C29U G61A the nonsense suppression was 0.83. A30G G65C C72U gave a nonsense suppression of at most 0.026. A30G A31U showed a nonsense suppression of at most 0.026. For C29G C72A A87U, the nonsense suppression was at most 0.026. A30U A31G showed a nonsense suppression of 0.25. A30C A31G A62C C81A showed a nonsense suppression of at most 0.026. C29U A54U G61C A62U showed a nonsense suppression of at most 0.026. Variant C29G A31U has a nonsense suppression of at most 0.026. With C29U G59C A60U A74U the nonsense suppression was at most 0.026. Variant G28C C34G C80G has a nonsense suppression of at most 0.026. Work on G28C G67C C79G yielded a nonsense suppression of at most 0.026. C29U A31C C68U C77A gave a nonsense suppression of at most 0.026. G28C A54U A62C U70A gave a nonsense suppression of at most 0.026. A30G U70G A87G gave a nonsense suppression of at most 0.026. With C29A U70A G78C the nonsense suppression was at most 0.026. With A30G A62C the nonsense suppression was at most 0.026. For G28U C72U, the nonsense suppression was at most 0.026. For G28C U58A C82U, the nonsense suppression was at most 0.026. With C29U C34U U70A the nonsense suppression was at most 0.026. G28C U57C U71C showed a nonsense suppression of at most 0.026. In the case of C29U U55G, the nonsense suppression is reported as at most 0.026. Work on G28U G69U yielded a nonsense suppression of at most 0.026. Variant A30C A89G has a nonsense suppression of at most 0.026. Work on A30C G78C yielded a nonsense suppression of at most 0.026. Work on G28U C80G yielded a nonsense suppression of at most 0.026. In the case of G28U C80A, the nonsense suppression is reported as at most 0.026. For C29A U35C, the nonsense suppression was at most 0.026. For C29A A33U, the nonsense suppression was at most 0.026. With C29G A60C G66C G85C the nonsense suppression was at most 0.026. Work on A30U A74C yielded a nonsense suppression of 0.0264. Variant A30U A54G G67U C82A has a nonsense suppression of at most 0.026. C29U U35A gave a nonsense suppression of at most 0.026. Work on G28A U35G G65U G73A C80U yielded a nonsense suppression of at most 0.026. For C29A C34U, the nonsense suppression was at most 0.026. C29G A54U U76G showed a nonsense suppression of at most 0.026. A30G G65C C80U showed a nonsense suppression of at most 0.026. A30U C34A showed a nonsense suppression of at most 0.026. Work on A30U C34G yielded a nonsense suppression of at most 0.026. For C29A C34G U63G, the nonsense suppression was at most 0.026. In the case of C29G G69U A87C, the nonsense suppression is reported as at most 0.026. C29U C68A G88A showed a nonsense suppression of at most 0.026. With A30G C77U the nonsense suppression was at most 0.026. For A30C C34A U57C G78C, the nonsense suppression was at most 0.026. For C29A G66C C77G C79G, the nonsense suppression was at most 0.026. Work on A30G C34A U63C G65U yielded a nonsense suppression of at most 0.026. With C29U C79G G86A the nonsense suppression was at most 0.026. Work on C29G C68U yielded a nonsense suppression of at most 0.026. G28U A62C C68U gave a nonsense suppression of at most 0.026. In the case of A30C C72U, the nonsense suppression is reported as at most 0.026. G28C G84C showed a nonsense suppression of 0.239. Variant C29U C56A A89C has a nonsense suppression of at most 0.026. For C29G U58A, the nonsense suppression was at most 0.026. Variant G28C A31U has a nonsense suppression of at most 0.026. A30U C79G gave a nonsense suppression of at most 0.026. For G28U A60C G69A, the nonsense suppression was at most 0.026. Variant G28U A62G U63A A74C has a nonsense suppression of at most 0.026. With C29A G73A the nonsense suppression was at most 0.026. With A30G U58A the nonsense suppression was at most 0.026. In the case of C29A U35A A54U G61C C80U, the nonsense suppression is reported as at most 0.026. In the case of C29G A54C U63G G66C, the nonsense suppression is reported as at most 0.026. C29U C72A showed a nonsense suppression of at most 0.026. With C29A A31G G67A U76C the nonsense suppression was at most 0.026. Variant A30C G88U has a nonsense suppression of at most 0.026. Variant A30G C56A C77U has a nonsense suppression of at most 0.026. With C29U G69U U70G the nonsense suppression was at most 0.026. A30C A60G G65A G88C gave a nonsense suppression of at most 0.026. A30C C75G showed a nonsense suppression of at most 0.026. For A30C C75A, the nonsense suppression was at most 0.026. G28C C34U gave a nonsense suppression of at most 0.026. With G28U A62U G84A the nonsense suppression was at most 0.026. A30G A60G showed a nonsense suppression of 0.108. A30U C56U U71A G88C showed a nonsense suppression of at most 0.026. Work on G28U A31C yielded a nonsense suppression of at most 0.026. With A30C C80A the nonsense suppression was at most 0.026. A30G G88U gave a nonsense suppression of at most 0.026. G28U G78A showed a nonsense suppression of 0.0292. Variant G28U C83U has a nonsense suppression of at most 0.026. G28U C83A gave a nonsense suppression of at most 0.026. In the case of C29G U70A C79A, the nonsense suppression is reported as at most 0.026. G28C A30U G85U gave a nonsense suppression of at most 0.026. C29G C56A U57C G61U C75G gave a nonsense suppression of at most 0.026. With A30C G61C G66C the nonsense suppression was at most 0.026. G28U C68U gave a nonsense suppression of at most 0.026. Work on A30G C72U yielded a nonsense suppression of at most 0.026. Work on G28U G69U C81G yielded a nonsense suppression of at most 0.026. For C29G C77G, the nonsense suppression was at most 0.026. Work on C29U U76A G84U yielded a nonsense suppression of at most 0.026. A30G U76C G84U gave a nonsense suppression of at most 0.026. C29A C56G gave a nonsense suppression of at most 0.026. For G28U C29G G61C G85U, the nonsense suppression was at most 0.026. Variant A30G A33U U71A has a nonsense suppression of at most 0.026. In the case of C29U U57G G85C, the nonsense suppression is reported as at most 0.026. Work on A30C U58A G67A yielded a nonsense suppression of at most 0.026. G28C G67C C83A gave a nonsense suppression of at most 0.026. C29U U58A gave a nonsense suppression of at most 0.026. G28C C68A gave a nonsense suppression of at most 0.026. C29G G73A C82G gave a nonsense suppression of at most 0.026. C29G A54G showed a nonsense suppression of at most 0.026. For C29G C64U, the nonsense suppression was at most 0.026. Work on G28U C34A yielded a nonsense suppression of at most 0.026. With G28U C34U U58G the nonsense suppression was at most 0.026. With C29G C79G the nonsense suppression was at most 0.026. For C29A U71G, the nonsense suppression was at most 0.026. Variant A30G C81G has a nonsense suppression of at most 0.026. C29A U76G showed a nonsense suppression of at most 0.026. C29A G61U G85U showed a nonsense suppression of at most 0.026. Work on C29U U58C A60G U71G yielded a nonsense suppression of at most 0.026. Variant G28U U35A G86A has a nonsense suppression of at most 0.026. Work on C29G U70A G86A yielded a nonsense suppression of at most 0.026.
